Data on 30 compounds can be found in PubChem BioAssay AID1745853 (National Center for Advancing Translational Sciences (NCATS), 2022).

Holding throughout (assay): Primary Screen for Target Class Profiling of Small Molecule Inhibitors of Methyltransferases
For experiment [1], the target named is Glycine N-methyltransferase (Homo sapiens) (UniProt Q14749). The note with it: purified enzyme, MTase-Glo SAH luminescence; measured here: GNMT inhibition; at 40 µM; stronger effect = lower value. The method, boiled down: (§1)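 Each enzyme was reacted with SAM and its substrate, with compounds tested once at 40 uM; SAH formed was read by MTase-Glo luminescence.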
Experiment [2] addresses Guanidinoacetate N-methyltransferase (Homo sapiens) (UniProt Q14353). Particulars: purified enzyme, MTase-Glo SAH luminescence; measured here: GAMT inhibition; at 40 µM; stronger effect = lower value. The method, boiled down: as §1
In experiment [3] the target is Histamine N-methyltransferase (Homo sapiens) (UniProt P50135). The note with it: purified enzyme, MTase-Glo SAH luminescence; measured here: HNMT inhibition; at 40 µM; stronger effect = lower value. The gist of the method:
as §1

For experiment [4], the target named is Nicotinamide N-methyltransferase (Homo sapiens) (UniProt P40261). Particulars: purified enzyme, MTase-Glo SAH luminescence; measured here: NNMT inhibition; at 40 µM; stronger effect = lower value. The method, boiled down:
as §1

For experiment [5], the target named is Phenylethanolamine N-methyltransferase (Homo sapiens) (UniProt P11086). The note with it: purified enzyme, MTase-Glo SAH luminescence; measured here: PNMT inhibition; at 40 µM; stronger effect = lower value. The method, boiled down:
as §1

SMILES strings stand for the structures. “And” between values parts separate entries of the source, which are not always exact repeats. Equal values may be shown once. This is one part of the list. Further columns of the screen follow, without active or inactive calls.
% is scaled to controls: 0 for no effect and ±100 for the full control effect.

With `Cc1cn([C@H]2C=C[C@@H](CO)O2)c(=O)[nH]c1=O`, the activity change, negative = inhibition is 3.93% in experiment [1]; 15.6% and -3.85% in experiment [2]; 13.1% in experiment [3]; -8.32% and -18.6% in experiment [4]; 1% and 1.88% in experiment [5].

Consider `COc1cc2nc(=NC(=O)c3cccnc3)n3c(c2cc1OC)NCC3`, for which the activity change, negative = inhibition in experiment [1] was -4.95%; in experiment [2], -8.37%; in experiment [3], 6.57%; in experiment [4], 5.87%; in experiment [5], -1.86%.

Regarding `C=Cc1ccc(Cn2nc3n(CCC)c(=O)c4ccc(C(=O)NC(C)CC)cc4n3c2=O)cc1` (stereo not drawn), the activity change, negative = inhibition in experiment [1] is 1.4%; in experiment [2] it was 0%; in experiment [3], 4.6%; in experiment [4], -2.34%; in experiment [5], 4.52%.

As to `CCn1cc(-c2ccc(Cl)cc2)cc1C(=O)N1CCN(c2ccccn2)CC1`, the activity change, negative = inhibition in experiment [1] is -7.75%; in experiment [2], -5.73%; in experiment [3] it was -9.5%; in experiment [4] it was -11.4%; in experiment [5] it was -6.17%.

On to `c1ccc(C2=NOC3(CCN(C4CCCCC4)CC3)C2)cc1`, for which the activity change, negative = inhibition is -2.42% in experiment [1]; -6.8% in experiment [2]; -17.9% in experiment [3]; -5.95% in experiment [4]; -0.299% in experiment [5].

As to `O=C1CCN(C(=O)CCc2ccccc2)CCCC(CO)CCN1` (stereo not drawn), the activity change, negative = inhibition was 0.319% in experiment [1]; -0.681% in experiment [2]; 1.48% in experiment [3]; -5.21% in experiment [4]; -4.36% in experiment [5].

On to `Cn1cc(-c2cnc(Nc3cccnc3)c3c2CCO3)cn1`, for which the activity change, negative = inhibition in experiment [1] is -14.2%; in experiment [2], -12.8%; in experiment [3], -17.2%; in experiment [4] it was -8.39%; in experiment [5], -4.49%.

As for `O=c1c(NS(=O)(=O)Cc2ccccc2)ccc2n1C[C@H]1C[C@@H]2CN(S(=O)(=O)c2ccccc2)C1`, the activity change, negative = inhibition in experiment [1] is -3.02%; in experiment [2], -0.128%; in experiment [3], -1.31%; in experiment [4], -3.35%; in experiment [5] it was 0.772%.

On to `CNC(=O)c1cc(C2CC2)nc2onc(C3CCCN3C(=O)Cc3ccccn3)c12` (stereo not drawn), for which the activity change, negative = inhibition in experiment [1] is 0.536%; in experiment [2] it was 0.188%; in experiment [3], 1.06%; in experiment [4], -3.98%; in experiment [5], -2.02%.

`C[C@]12CC[C@@H]3c4ccc(O[C@@H]5O[C@H](C(=O)O)[C@@H](O)[C@H](O)[C@H]5O)cc4CC[C@H]3[C@@H]1CCC2=O`: the activity change, negative = inhibition in experiment [1] is -2.22%; in experiment [2], -4.56%; in experiment [3], 7.03%; in experiment [4], -12.1%; in experiment [5], 1.72%.

Regarding `Nc1ncnc2c1nc(Br)n2C1OC2COP(=O)(O)O[C@@H]2C1O` (stereo partly drawn), the activity change, negative = inhibition is 7.18% in experiment [1]; 11.5% in experiment [2]; 7.3% in experiment [3]; -2.96% in experiment [4]; 5.66% in experiment [5].

Take `COc1cccc(C(=O)N(C)C2CCc3ccccc32)c1` (stereo not drawn): the activity change, negative = inhibition in experiment [1] is -4.4%; in experiment [2], -4.01%; in experiment [3], -2%; in experiment [4], -16.3%; in experiment [5], -14.6%.

`OCc1ccccc1O[C@@H]1O[C@H](CO)[C@@H](O)[C@H](O)[C@H]1O`: the activity change, negative = inhibition in experiment [1] was 0.371%; in experiment [2], -3.35%; in experiment [3] it was 7.09%; in experiment [4], -12.8%; in experiment [5], -0.237%.

Turning to `Cc1nc([C@@H]2CN(C(=O)c3sccc3C)C[C@H]2C(N)=O)n[nH]1`, the activity change, negative = inhibition in experiment [1] was -0.784%; in experiment [2], -0.611%; in experiment [3] it was 1.7%; in experiment [4], -3.61%; in experiment [5], -5.37%.

For `Cc1noc(C)c1-c1cc2c(cc(C)n2C)c(NCc2ccncc2)n1`, the activity change, negative = inhibition was -27.2% in experiment [1]; -17.3% in experiment [2]; -16.6% in experiment [3]; -21.1% in experiment [4]; -44.3% in experiment [5].

As to `C[n+]1cc(NC(=O)c2cccc(C(=O)Nc3cc4ccccc4[n+](C)c3)n2)cc2ccccc21`, the activity change, negative = inhibition was 7.39% in experiment [2], -8.35% in experiment [4] and 6.04% in experiment [5].

With `COc1ccc(N(C(=O)c2ccccc2OC)S(=O)(=O)c2ccc3c(c2)n(C)c(=O)n3C)cc1`, the activity change, negative = inhibition in experiment [1] was -0.188%; in experiment [2] it was 1.19%; in experiment [3], 5.75%; in experiment [4], -2.7%; in experiment [5], 0.947%.

For the compound `COc1ccc(C)cc1NC(=O)CCC[C@@H]1[C@H]2CCCN3CCC[C@@H](CN1C)[C@@H]23`, the activity change, negative = inhibition in experiment [1] was -4.4%; in experiment [2], -14.5%; in experiment [3] it was -7.11%; in experiment [4], -18.2%; in experiment [5], -8.58%.

Regarding `CCc1ccc(N2C(=O)c3cc4occc4n3CC2(C)C(=O)NC2CCCCCC2)cc1` (stereo not drawn), the activity change, negative = inhibition in experiment [1] is -3.17%; in experiment [2] it was 4.23%; in experiment [3], -0.389%; in experiment [4], -1.33%; in experiment [5], -2.53%.

Turning to `CCCn1c(=O)c2ccc(C(=O)NCC(C)C)cc2n2c(=O)n(CC(=O)Nc3ccc(C)c(F)c3)nc12`, the activity change, negative = inhibition is 1.41% in experiment [1]; 0% in experiment [2]; -1.55% in experiment [3]; -1.7% in experiment [4]; 3.03% in experiment [5].

For the compound `CCN(C(=O)Cn1c(=O)oc2cc(S(=O)(=O)N3CC(C)CC(C)C3)ccc21)c1ccccc1` (stereo not drawn), the activity change, negative = inhibition in experiment [1] was 5.58%; in experiment [2], 0%; in experiment [3], 2.73%; in experiment [4], -3.25%; in experiment [5], -4.45%.

With `CC1CCCCN1CCCNC(=O)c1cc2c(s1)CN(C1CCCC1)C2` (stereo not drawn), the activity change, negative = inhibition is -10.5% in experiment [1]; -16.6% in experiment [2]; -51.1% in experiment [3]; -14.7% in experiment [4]; -5.93% in experiment [5].

Regarding `O=C(c1ccc(C#Cc2cccc(F)c2)cn1)N1CC2CC2C1` (stereo not drawn), the activity change, negative = inhibition is -2% in experiment [1]; -13.3% in experiment [2]; 10.8% in experiment [3]; -10.2% in experiment [4]; -0.72% in experiment [5].

As for `CN1C(CCl)Nc2cc(Cl)c(S(N)(=O)=O)cc2S1(=O)=O` (stereo not drawn), the activity change, negative = inhibition in experiment [1] is 5.32%; in experiment [2], 8.45%; in experiment [3], 12.6%; in experiment [4], -8.27%; in experiment [5] it was 6.42%.

Turning to `COc1ccc(NC(=O)CSc2nnc3n(CC(C)C)c(=O)c4cc(F)ccc4n23)cc1`, the activity change, negative = inhibition in experiment [1] was 1.55%; in experiment [2] it was 0%; in experiment [3], 10.7%; in experiment [4] it was -5.87%; in experiment [5], 4.5%.

On to `CC[C@H](C)[C@H](N)C(=O)N1CCC(Cn2cc(C3CCCC3)nn2)CC1`, for which the activity change, negative = inhibition in experiment [1] is -1.58%; in experiment [2] it was 0.297%; in experiment [3], -0.433%; in experiment [4], -8.93%; in experiment [5], -3.56%.

`CC(C)Cc1cc(CN2CCC(CO)(CN3CCCC3)CC2)[nH]n1`: the activity change, negative = inhibition was -1.48% in experiment [1]; -7.2% in experiment [2]; -6.77% in experiment [3]; -3.33% in experiment [4]; -2.91% in experiment [5].

For `Cc1ccc(S(=O)(=O)n2ccc(-c3c(-c4ccc(Cl)cc4)noc3C)n2)cc1`, the activity change, negative = inhibition is -10.2% in experiment [1]; -8.8% in experiment [2]; -0.129% in experiment [3]; -24.7% in experiment [4]; -4.29% in experiment [5].

Consider `CCCC1c2cccn2CCN1C(=O)Nc1cccc(C)c1C` (stereo not drawn), for which the activity change, negative = inhibition is 1.66% in experiment [1]; 1.15% in experiment [2]; -16.5% in experiment [3]; 0.858% in experiment [4]; 4.4% in experiment [5].

For the compound `C[C@@H](NCCc1ccc(O)cc1)[C@@H](O)c1ccc(O)cc1`, the activity change, negative = inhibition was 8.7% in experiment [1]; 6.04% in experiment [2]; -36% in experiment [3]; -10% in experiment [4]; -6.08% in experiment [5].
